From PubChem BioAssay AID651820 (National Center for Advancing Translational Sciences (NCATS), 2012)
Where “and” joins values, the source holds several entries; their conditions need not be identical. Equal entries are not always repeated. In all, about 340,000 compounds went through this assay and about 12,000 (3.5%) were called active. This list was built around the results that the source calls inconclusive (neither active nor inactive); the mix of calls is not that of the screen. The call rests on the fitted dose curve; in most records, active means well fitted inhibition curve with a large enough effect; inconclusive means small, poorly fitted or top-dose-only effect, or another doubt; inactive means no such curve, though single readings can be large or run the other way. Potencies of inconclusive entries are left out as doubtful fits.

experiment: qHTS Assay for Inhibitors of Hepatitis C Virus (HCV); details: Huh7.5.1 HCVcc-Cre (HCVcc is cell-culture hepatitis C virus) infection, luciferase reporter, 44 h; series mostly up to 41.8 µM
Method in brief: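 Reporter virus HCVcc-Cre (~0.5 moi) infects cells exposed to compound; seeding density 1,000 cells/well with 4 h settling beforehand. Luminescence, 15 sec read, taken 44 h post-infection following a 15 min RT substrate incubation.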
Potency means the concentration at half of the fitted maximal effect; tags describe the fitted curve by direction and shape.

SMILES	Potency
CCOC(=O)c1c(C)n(C)c2ccc(OC(=O)c3ccc(N4C(=O)CCC4=O)cc3)cc12	inconclusive [inhibitor, single point]
CCO[C@@H]1OC(C(=O)N2CCN(Cc3ccccc3)CC2)=C[C@H](c2csc3ccccc23)[C@H]1CCCO	inconclusive [inhibitor, single point]
COC(=O)C1=C(Nc2ccc(C)cc2)C=C(C)C(C(=O)OC)C1c1ccc(OC)cc1 (centres undefined)	inconclusive [inhibitor, single point]
CCCCn1c(O)c(/C=C/C=C/C=Nc2ccccc2)sc1=S	inactive
O=C1OCCN1C(=O)[C@H]1[C@H](c2ccc(Cl)cc2)C(c2ccc(F)cc2)=NN1c1ccc(Br)cc1	inconclusive [inhibitor, single point]
COc1ccc([C@H]2CC(=O)C=C(c3cccc(C(F)(F)F)c3)C2)cc1	inconclusive [inhibitor, single point]
CCOC(=O)Cn1cc(Cl)cc(C(=O)Nc2ccccc2)c1=O	inconclusive [inhibitor, full curve, poor fit]
COc1ccc(CNc2ncnc3cc(Cl)ccc23)cc1	active: 8.91 µM
c1ccc(-c2cc(-c3ccncc3)nc3ccc4ccccc4c23)cc1	active: 10 µM
Cc1ccc2cccc(NS(=O)(=O)c3ccccc3)c2n1	inactive
COc1cc(C#N)ccc1OCC(=O)Nc1ccc(C)c(S(=O)(=O)N2CCOCC2)c1	inconclusive [inhibitor, single point]
C/C(=N\OCC(=O)Nc1ccccc1Br)c1cccs1	inconclusive [inhibitor, single point]
Cc1ccccc1OCc1nnc(SCC(=O)Nc2c(C)n(C)n(-c3ccccc3)c2=O)n1-c1ccccc1	inactive
CCOC(=O)C1(Cc2ccccc2)CCN(Cc2ccc3c(c2)OCCO3)CC1	inactive
O=C(NC1CCN(Cc2ccccc2)CC1)c1ccc(Oc2cc(Cl)cc(Cl)c2)o1	inconclusive [inhibitor, partial curve]
CN(C)C1(CNC(=S)Nc2ccccc2C(F)(F)F)CCCCC1	inconclusive [inhibitor, single point]
COC(=O)Cn1cnc2c(cnn2-c2ccc(OC)cc2)c1=O	inactive
O=C(CN1C(=O)CSc2ccccc21)N/N=C/c1ccco1	inactive
Cc1ccc(OCCNS(=O)(=O)c2ccc(N3CCCC3=O)cc2)cc1	inconclusive [inhibitor, single point]
CCCCn1c(O)c(C(C)=NCc2ccc(F)cc2)c(=O)[nH]c1=O	inactive
COc1ccc(NC(=O)c2ccc3ccccc3n2)cc1S(=O)(=O)Nc1ccccc1Cl	inconclusive [inhibitor, single point]
C=CCn1c(SCCOc2ccc(OC)cc2)nnc1C(C)NC(=O)c1ccc(OC)cc1 (centres undefined)	inactive
CCOc1ccc(-c2cc(N)n(S(=O)(=O)c3ccc(OC)cc3)n2)cc1	inconclusive [inhibitor, single point]

SMILES	Potency
COc1cc(C(=O)/C=C/c2cccnc2)c([N+](=O)[O-])cc1OC	inconclusive [inhibitor, single point]
COCC(=O)N(CCc1ccccc1)Cc1cc2cc(C)ccc2nc1Cl	inactive
O=S1(=O)C=C(Sc2nnc(-c3ccccc3)o2)c2ccccc21	active: 10 µM
COc1cc([C@H]2[C@@H]3CCCC[C@]3(O)CCN2Cc2ccccc2F)ccc1O	inactive
CC(C)(C)c1ccc(C(=O)NCC(=O)OCC(=O)Nc2ccccc2[N+](=O)[O-])cc1	inactive
Cc1onc(C(=O)NN)c1C(=O)N1CCN(C(c2ccccc2)c2ccccc2)CC1	inconclusive [inhibitor, single point]
CC(C)CCNc1nc(N)c([N+](=O)[O-])c(NCC2CCCO2)n1 (centres undefined)	inconclusive [inhibitor, partial curve]
CCCCc1cc(=O)oc2cc(OCC(=O)N(CC)CC)ccc12	inactive
O=C(NCC1CCCO1)/C(=C\c1cccc([N+](=O)[O-])c1)NC(=O)c1ccccc1 (centres undefined)	inactive
CC1(C)Cc2c(ccc3ccccc23)C2=C(C(=O)N3CCCC3)C(=O)C(=O)N21	inconclusive [inhibitor, partial curve]
CCOC(=O)c1sc2nc(C)nc(NCc3ccccc3)c2c1C	inconclusive [inhibitor, single point]
CC[N+]1(C)CCC(O)(/C=C/c2ccccc2)C(C(=O)/C=C/c2ccccc2)C1 (centres undefined)	inconclusive [inhibitor, single point]
Cc1[nH]c2ccccc2c1SCC(=O)NC1CCCCC1	inconclusive [inhibitor, partial curve]
Cc1cc(NCc2ccccc2Cl)n2nnnc2n1	inconclusive [inhibitor, partial curve]
Cc1cccc(/C=N/NC(=O)c2cc(-c3cccnc3)nc3c2c(C)nn3-c2ccccc2)c1	inconclusive [inhibitor, full curve, poor fit]
N#Cc1c2n(c3c(=O)n(Cc4ccccc4Cl)cnc13)CCCC2	active: 11.2 µM
COC(=O)c1ccc(NC(C(=O)OC)C(C)C)c([N+](=O)[O-])c1 (centres undefined)	inconclusive [inhibitor, single point]
N#Cc1cc([N+](=O)[O-])ccc1Oc1cccc(/C=N/NC(=O)c2cccc(Cl)c2)c1	inconclusive [inhibitor, single point]
S=C(NCc1ccco1)N1CCN(c2nc(-c3ccccc3)cs2)CC1	inconclusive [inhibitor, single point]
O=C(c1ccco1)N1N=C(c2ccc(Br)cc2)CC1(O)C(F)(F)F (centres undefined)	inconclusive [inhibitor, partial curve]
CCCOC(=O)C1=C(C)NC(=O)NC1c1cc2c(cc1Br)OCO2 (centres undefined)	inactive
OCCOCCn1c(C(CO)Nc2nc(-c3cccc(Br)c3)cs2)nc2ccccc21 (centres undefined)	inactive
Cc1nn(C)c(C)c1CNC(=O)Nc1cccc(Cl)c1	inactive

SMILES	Potency
CCCC(O)(c1ccc(Br)cc1)C(CN1CCOCC1)c1ccc(Cl)cc1 (centres undefined)	inconclusive [inhibitor, single point]
COc1ccc(-n2nc([N+](=O)[O-])c(=NCCc3cccc(C)c3)n2O)cc1	inconclusive [inhibitor, single point]
O=C(c1ccc(OC2CCN(C/C=C/c3ccccc3)CC2)cc1)N1CCCCC1	inactive
Cc1cccc(-c2nc3c(c(SCC(=O)N4CCOCC4)n2)COC(C)(C)C3)c1	inactive
COc1ccccc1N(C)S(=O)(=O)c1ccc(C(=O)NCCc2ccc(F)cc2)cc1	inconclusive [inhibitor, single point]
CCn1c(=O)cc(OCC(=O)N2CCN(c3ccc(F)cc3)CC2)c2ccccc21	inconclusive [inhibitor, single point]
Cc1ccc(CN2CCSc3ccc(C(=O)NCC4CCCO4)cc32)cc1 (centres undefined)	inconclusive [inhibitor, partial curve]
Cc1ccc(S(=O)(=O)N2CCN(C(=O)CSCc3ccc(C(C)C)cc3)CC2)cc1	inconclusive [inhibitor, partial curve]
O=C(NNC(=O)C1[C@H]2CCCC[C@@H]12)c1ccc(=O)oc1 (some centres undefined)	inconclusive [inhibitor, single point]
Cc1cc2c(cc(C(=O)OCC(=O)NCc3ccco3)n2C)s1	inactive
CC(CCN1CCC(CN2C(=S)NCC2Cc2ccccc2)CC1)c1ccccc1 (centres undefined)	inactive
Oc1ccc(N=Cc2ccc(OCc3ccccc3)cc2)cc1	inconclusive [inhibitor, single point]
Cc1ccc(-c2csc3ncnc(N4CCc5ccccc5C4)c23)cc1	inconclusive [inhibitor, single point]
COc1ccc(NC(=O)CN2C(=O)C(C)Oc3ccc(C)cc32)cc1 (centres undefined)	inconclusive [inhibitor, single point]
O=C(CSCc1cnn(-c2ccccc2)c1-n1cccc1)NCc1cccnc1	inconclusive [inhibitor, single point]
COc1ccc(NC(=O)c2ccc(Cl)c(S(=O)(=O)N3CCc4ccccc4C3)c2)cn1	active: 10 µM and active: 11.2 µM
CCCNC(=O)CSc1nc(Cc2ccccc2)nc2ccccc12	inconclusive [inhibitor, single point]
CC[C@H]1c2[nH]c3ccccc3c2C[C@H]2C(=O)N(c3ccc(F)cc3)C(=O)N21	inconclusive [inhibitor, partial curve, poor fit]
CC(=O)Nc1ccc(NC(=O)C(=O)NCC(c2ccco2)N2CCc3ccccc3C2)cc1 (centres undefined)	inconclusive [inhibitor, full curve, poor fit]
O=S(=O)(c1ccc2c(c1)oc1ccccc12)N1CCOCC1	inconclusive [inhibitor, partial curve]
CCOC(=O)c1nc(N)c(C(=O)OCC)[nH]1	inactive
COc1cccc(C(=O)Nc2sc(C(C)C)cc2C(N)=O)c1OC	inconclusive [inhibitor, single point]
COc1ccc(C)cc1S(=O)(=O)Nc1cccc(-c2ccc(N3CCCCCC3)nn2)c1	active: 10 µM
